# Data taken from the supplement of paper PMC8728848.
# This is one part of the list.
# B1: StdA (Salmonella typhimurium), Q8Z3Z0 (protein)
# chain: MAAAGMMYGASVFAADTTPTAGPFGSGKILFTGTITNSPCDIAPGDDAITVPFGQISYRKLNTANATTDSKPFTIHLQNCAFDPNETTIAGSAGKMSKVTVSFSGTADTSGKAYVSTGSAQHVGVQLLKGDNTSLITPNTPMPDGDAQQLQAGNNELNFFARLIALTDAATPGDVNASVTYTLKYL
# Tests used:
# Test in all cases: glycan array binding signal (z-score within array); higher = stronger binding
# Settings in all cases: glycan notation: IUPAC condensed, linker removed
# [1] = target: Gal(a1-2)Gal
# Method in brief: (§1)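 The Consortium for Functional Glycomics database supplied 3228 glycan arrays, of which those lacking an available protein sequence were dropped. The binding signal, a within-array Z-score, was averaged across arrays of the same protein sequence and across linkers. Negative scores can be read as non-binding.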
# [2] = target: Gal(a1-3)Gal
# Method in brief: as §1
# [3] = target: Gal(a1-3)Gal(b1-3)GlcNAc
# Method in brief: as §1
# [4] = target: Gal(a1-3)Gal(b1-4)Glc
# Method in brief: as §1
# [5] = target: Gal(a1-3)Gal(b1-4)GlcNAc
# Method in brief: as §1
# [6] = target: Gal(a1-3)Gal(b1-4)[Fuc(a1-3)]GlcNAc
# Method in brief: as §1
# [7] = target: Gal(a1-3)Gal(b1-4)[Fuc(a1-3)]GlcNAc(b1-2)Man(a1-3)[Gal(a1-3)Gal(b1-4)[Fuc(a1-3)]GlcNAc(b1-2)Man(a1-6)]Man(b1-4)GlcNAc(b1-4)GlcNAc
# Method in brief: as §1
# [8] = target: Gal(a1-3)GalNAc
# Method in brief: as §1
# [9] = target: Gal(a1-3)[Gal(a1-4)]Gal(b1-4)GlcNAc
# Method in brief: as §1
# [10] = target: Gal(a1-4)Gal(b1-4)Glc
# Method in brief: as §1
# [11] = target: Gal(a1-4)Gal(b1-4)GlcNAc
# Method in brief: as §1
# [12] = target: Gal(a1-4)Gal(b1-4)GlcNAc(b1-3)Gal(b1-4)Glc
# Method in brief: as §1
# [13] = target: Gal(a1-4)GlcNAc
# Method in brief: as §1
# [14] = target: Gal(a1-6)Glc
# Method in brief: as §1
# [15] = target: Gal(b1-2)Gal
# Method in brief: as §1
# [16] = target: Gal(b1-3)Gal
# Method in brief: as §1
# [17] = target: Gal(b1-3)Gal(b1-4)GlcNAc
# Method in brief: as §1
# [18] = target: Gal(b1-3)Gal(b1-4)GlcNAc(b1-2)Man(a1-3)[Gal(b1-3)Gal(b1-4)GlcNAc(b1-2)Man(a1-6)]Man(b1-4)GlcNAc(b1-4)GlcNAc
# Method in brief: as §1
# [19] = target: Gal(b1-3)GalNAc
# Method in brief: as §1
# [20] = target: Gal(b1-3)GalNAc(a1-3)[Fuc(a1-2)]Gal(b1-4)Glc
# Method in brief: as §1
# [21] = target: Gal(b1-3)GalNAc(a1-3)[Fuc(a1-2)]Gal(b1-4)GlcNAc
# Method in brief: as §1
# [22] = target: Gal(b1-3)GalNAc(b1-3)Gal(a1-4)Gal(b1-4)Glc
# Method in brief: as §1
# [23] = target: Gal(b1-3)GalNAc(b1-4)Gal(b1-4)Glc
# Method in brief: as §1
# [24] = target: Gal(b1-3)GalNAc(b1-4)[Neu5Ac(a2-3)]Gal(b1-4)Glc
# Method in brief: as §1
# [25] = target: Gal(b1-3)GlcNAc
# Method in brief: as §1
# [26] = target: Gal(b1-3)GlcNAc(b1-2)Man(a1-3)[Gal(b1-3)GlcNAc(b1-2)Man(a1-6)]Man(b1-4)GlcNAc(b1-4)GlcNAc
# Method in brief: as §1
# [27] = target: Gal(b1-3)GlcNAc(b1-2)Man(a1-3)[Gal(b1-3)GlcNAc(b1-2)Man(a1-6)]Man(b1-4)GlcNAc(b1-4)[Fuc(a1-6)]GlcNAc
# Method in brief: as §1
# [28] = target: Gal(b1-3)GlcNAc(b1-3)Gal(b1-3)GlcNAc
# Method in brief: as §1
# [29] = target: Gal(b1-3)GlcNAc(b1-3)Gal(b1-4)Glc
# Method in brief: as §1
# [30] = target: Gal(b1-3)GlcNAc(b1-3)Gal(b1-4)GlcNAc
# Method in brief: as §1
# [31] = target: Gal(b1-3)[Fuc(a1-4)]GlcNAc
# Method in brief: as §1
# [32] = target: Gal(b1-3)[Fuc(a1-4)]GlcNAc(b1-2)Man(a1-3)[Gal(b1-3)[Fuc(a1-4)]GlcNAc(b1-2)Man(a1-6)]Man(b1-4)GlcNAc(b1-4)GlcNAc
# Method in brief: as §1
# [33] = target: Gal(b1-3)[Fuc(a1-4)]GlcNAc(b1-2)Man(a1-3)[Gal(b1-3)[Fuc(a1-4)]GlcNAc(b1-2)Man(a1-6)]Man(b1-4)GlcNAc(b1-4)[Fuc(a1-6)]GlcNAc
# Method in brief: as §1
# [34] = target: Gal(b1-3)[Fuc(a1-4)]GlcNAc(b1-3)Gal(b1-3)[Fuc(a1-4)]GlcNAc
# Method in brief: as §1
# [35] = target: Gal(b1-3)[Fuc(a1-4)]GlcNAc(b1-3)Gal(b1-4)GlcNAc
# Method in brief: as §1
# [36] = target: Gal(b1-3)[Fuc(a1-4)]GlcNAc(b1-3)Gal(b1-4)[Fuc(a1-3)]GlcNAc
# Method in brief: as §1
# [37] = target: Gal(b1-3)[GlcNAc(b1-6)]GalNAc
# Method in brief: as §1
# [38] = target: Gal(b1-3)[Neu5Ac(a2-6)]GalNAc
# Method in brief: as §1
# [39] = target: Gal(b1-3)[Neu5Ac(a2-6)]GlcNAc(b1-6)Gal(b1-4)Glc
# Method in brief: as §1
# [40] = target: Gal(b1-3)[Neu5Ac(b2-6)]GalNAc
# Method in brief: as §1
# [41] = target: Gal(b1-4)GalNAc(a1-3)[Fuc(a1-2)]Gal(b1-4)GlcNAc
# Method in brief: as §1
# [42] = target: Gal(b1-4)GalNAc(b1-3)[Fuc(a1-2)]Gal(b1-4)GlcNAc
# Method in brief: as §1
# [43] = target: Gal(b1-4)Glc
# Method in brief: as §1
# [44] = target: Gal(b1-4)Glc6S
# Method in brief: as §1
# [45] = target: Gal(b1-4)GlcNAc
# Method in brief: as §1
# [46] = target: Gal(b1-4)GlcNAc(a1-6)Gal(b1-4)GlcNAc
# Method in brief: as §1
# [47] = target: Gal(b1-4)GlcNAc(b1-2)Man(a1-3)Man(b1-4)GlcNAc(b1-4)GlcNAc
# Method in brief: as §1
# [48] = target: Gal(b1-4)GlcNAc(b1-2)Man(a1-3)[Gal(b1-4)GlcNAc(b1-2)Man(a1-6)]Man(b1-4)GlcNAc(b1-4)GlcNAc
# Method in brief: as §1
# [49] = target: Gal(b1-4)GlcNAc(b1-2)Man(a1-3)[Gal(b1-4)GlcNAc(b1-2)Man(a1-6)]Man(b1-4)GlcNAc(b1-4)[Fuc(a1-6)]GlcNAc
# Method in brief: as §1
# [50] = target: Gal(b1-4)GlcNAc(b1-2)Man(a1-3)[Man(a1-6)]Man(b1-4)GlcNAc(b1-4)GlcNAc
# Method in brief: as §1
# [51] = target: Gal(b1-4)GlcNAc(b1-2)Man(a1-6)Man(b1-4)GlcNAc(b1-4)GlcNAc
# Method in brief: as §1
# [52] = target: Gal(b1-4)GlcNAc(b1-2)Man(a1-6)[Man(a1-3)]Man(b1-4)GlcNAc(b1-4)GlcNAc
# Method in brief: as §1
# [53] = target: Gal(b1-4)GlcNAc(b1-2)[Gal(b1-4)GlcNAc(b1-4)]Man(a1-3)[Gal(b1-4)GlcNAc(b1-2)Man(a1-6)]Man(b1-4)GlcNAc(b1-4)GlcNAc
# Method in brief: as §1
# [54] = target: Gal(b1-4)GlcNAc(b1-3)Gal(b1-3)GlcNAc
# Method in brief: as §1
# [55] = target: Gal(b1-4)GlcNAc(b1-3)Gal(b1-4)Glc
# Method in brief: as §1
# [56] = target: Gal(b1-4)GlcNAc(b1-3)Gal(b1-4)GlcNAc
# Method in brief: as §1
# [57] = target: Gal(b1-4)GlcNAc(b1-3)Gal(b1-4)GlcNAc(b1-3)Gal(b1-4)GlcNAc
# Method in brief: as §1
# [58] = target: Gal(b1-4)GlcNAc(b1-3)Gal(b1-4)[Fuc(a1-3)]GlcNAc(b1-3)Gal(b1-4)[Fuc(a1-3)]GlcNAc
# Method in brief: as §1
# [59] = target: Gal(b1-4)GlcNAc(b1-3)GalNAc
# Method in brief: as §1
# [60] = target: Gal(b1-4)GlcNAc(b1-3)[Gal(b1-4)GlcNAc(b1-6)]Gal(b1-4)GlcNAc
# Method in brief: as §1
binder,measurement,setting,value
B1,glycan array binding signal (z-score),[1],-0.199
same,glycan array binding signal (z-score),[2],-0.283
same,glycan array binding signal (z-score),[3],-0.688
same,glycan array binding signal (z-score),[4],0.257
same,glycan array binding signal (z-score),[5],-0.552
same,glycan array binding signal (z-score),[6],-0.471
same,glycan array binding signal (z-score),[7],4.97
same,glycan array binding signal (z-score),[8],-0.564
same,glycan array binding signal (z-score),[9],-0.239
same,glycan array binding signal (z-score),[10],-0.601
same,glycan array binding signal (z-score),[11],-0.386
same,glycan array binding signal (z-score),[12],-0.132
same,glycan array binding signal (z-score),[13],-0.031
same,glycan array binding signal (z-score),[14],-0.53
same,glycan array binding signal (z-score),[15],-0.32
same,glycan array binding signal (z-score),[16],-0.363
same,glycan array binding signal (z-score),[17],0.198
same,glycan array binding signal (z-score),[18],-0.295
same,glycan array binding signal (z-score),[19],-0.081
same,glycan array binding signal (z-score),[20],-0.49
same,glycan array binding signal (z-score),[21],0.174
same,glycan array binding signal (z-score),[22],-0.097
same,glycan array binding signal (z-score),[23],0.288
same,glycan array binding signal (z-score),[24],-0.117
same,glycan array binding signal (z-score),[25],-0.002
same,glycan array binding signal (z-score),[26],-0.793
same,glycan array binding signal (z-score),[27],-0.003
same,glycan array binding signal (z-score),[28],-0.674
same,glycan array binding signal (z-score),[29],0.099
same,glycan array binding signal (z-score),[30],-0.222
same,glycan array binding signal (z-score),[31],0.042
same,glycan array binding signal (z-score),[32],5.67
same,glycan array binding signal (z-score),[33],2.26
same,glycan array binding signal (z-score),[34],-0.432
same,glycan array binding signal (z-score),[35],-0.401
same,glycan array binding signal (z-score),[36],0.503
same,glycan array binding signal (z-score),[37],-0.177
same,glycan array binding signal (z-score),[38],0.068
same,glycan array binding signal (z-score),[39],-0.525
same,glycan array binding signal (z-score),[40],-0.535
same,glycan array binding signal (z-score),[41],0.325
same,glycan array binding signal (z-score),[42],-0.717
same,glycan array binding signal (z-score),[43],0.061
same,glycan array binding signal (z-score),[44],-0.387
same,glycan array binding signal (z-score),[45],0.101
same,glycan array binding signal (z-score),[46],-0.538
same,glycan array binding signal (z-score),[47],-0.386
same,glycan array binding signal (z-score),[48],-0.108
same,glycan array binding signal (z-score),[49],-0.496
same,glycan array binding signal (z-score),[50],-0.695
same,glycan array binding signal (z-score),[51],0.708
same,glycan array binding signal (z-score),[52],-0.674
same,glycan array binding signal (z-score),[53],-0.028
same,glycan array binding signal (z-score),[54],0.069
same,glycan array binding signal (z-score),[55],-0.338
same,glycan array binding signal (z-score),[56],-1.03
same,glycan array binding signal (z-score),[57],-0.173
same,glycan array binding signal (z-score),[58],-0.159
same,glycan array binding signal (z-score),[59],0.068
same,glycan array binding signal (z-score),[60],-0.472
